{"source": "the supplement of paper PMC11417369", "note": "± gives the standard deviation of the averaged measurements. The list shows a part of the results."}
{"tested_on": "PfAP2-EXP AP2 domain (GST-tagged)", "assay": "gcPBM binding intensity (ln(normalized median fluorescence intensity)); higher = stronger DNA binding", "method_in_brief": "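An Agilent 4 × 180k array of primer-extended double-stranded 36-bp intergenic genomic probes, with negative controls, was incubated for 1 h with GST-tagged P. falciparum DNA-binding domains expressed in E. coli. Alexa488 anti-GST antibody detected bound protein, scanned at 488 nm. Binding intensity is the highest Masliner-normalised natural-log median intensity across replicate spots of either probe orientation.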"}
{"sequence": "TAACTTAATATTAATGCACACAATTTATATATATAT [CACACA_site3903]", "gcPBM binding intensity (ln)": "9.79 ± 0.13"}
{"sequence": "TTTATATATTTTAGGTGTACATAAATTTTTATATAT [XGTACX_site5597]", "gcPBM binding intensity (ln)": "8.37 ± 0.33"}
{"sequence": "AACTTACTTGGACATACACACATATATATATATATA [CACACA_site2978]", "gcPBM binding intensity (ln)": "10.2 ± 0.44"}
{"sequence": "AGTAGAATATCCCCTACACACCCAAATAATTTACAA [CACACA_site8339]", "gcPBM binding intensity (ln)": "9.27 ± 0.64"}
{"sequence": "TTTTGTTGAAAAAAAAAAAAAAAATTAAATTAAATT [GTGCAC_negctrl_site636]", "gcPBM binding intensity (ln)": "8.12 ± 0.34"}
{"sequence": "CATAGACACGAACATACACACGGACATACATACGGA [CACACA_site8101]", "gcPBM binding intensity (ln)": "8.93 ± 0.71"}
{"sequence": "GTAACAAATTAATAGTGTACATATTTTAAAAAAATA [XGTACX_site7150]", "gcPBM binding intensity (ln)": "8.4 ± 0.34"}
{"sequence": "GTGTTAAATTTTTGAACATGCAAGTTTTATTATTGA [TGCATGCA_site478]", "gcPBM binding intensity (ln)": "9.34 ± 0.33"}
{"sequence": "AATGCAAAGGTGAAAGAACACACAAAAAAAAAAAAA [CACACA_site9333]", "gcPBM binding intensity (ln)": "8.55 ± 0.64"}
{"sequence": "ATATTATAAATATAATGTACGTTTTAATTTCATGTT [XGTACX_site3557]", "gcPBM binding intensity (ln)": "8.48 ± 0.4"}
{"sequence": "ATATATAATTATTGAAGTACTTGTTCATAAAATGGT [XGTACX_site5656]", "gcPBM binding intensity (ln)": "8.74 ± 0.38"}
{"sequence": "AAAATAAAATGAAAACGTACATGATAAATTTTAATT [XGTACX_site4199]", "gcPBM binding intensity (ln)": "8.8 ± 0.47"}
{"sequence": "TATATGAGCATAAAGACACACAAATAAAACCAAACA [CACACA_site3856]", "gcPBM binding intensity (ln)": "8.88 ± 0.45"}
{"sequence": "AGAACAATTCTGTGGTGTACCAAAAAAAATTTAATT [XGTACX_site8082]", "gcPBM binding intensity (ln)": "8.52 ± 0.37"}
{"sequence": "AAAATAAATAAATATACACACCATATTTATATTTTT [CACACA_site7361]", "gcPBM binding intensity (ln)": "8.34 ± 0.38"}
{"sequence": "ATATTTAAATTTTGCACACGCATATGAAATTAGGAC [CACACA_site1035]", "gcPBM binding intensity (ln)": "8.88 ± 0.3"}
{"sequence": "TAAATGAATTTTACTATACACACGTATACATTTGTA [CACACA_site1210]", "gcPBM binding intensity (ln)": "8.34 ± 0.49"}
{"sequence": "TAATTTGTTATTTATTGTACAAACATTATATGTTAA [XGTACX_site6637]", "gcPBM binding intensity (ln)": "8.38 ± 0.38"}
{"sequence": "TACTACACACATTCATGTACTTGATAAATTAATGAT [XGTACX_site6444]", "gcPBM binding intensity (ln)": "8.53 ± 0.22"}
{"sequence": "ATAACTAATATGAAATGTACCCATCAAAGTGTGCAT [XGTACX_site4463]", "gcPBM binding intensity (ln)": "8.32 ± 0.35"}
{"sequence": "AAAATTAAAATACGTACACACCTTATCTTTTTGGCT [CACACA_site4311]", "gcPBM binding intensity (ln)": "8.56 ± 0.28"}
{"sequence": "TTATAACATCTTAAATGTACAAATATGTGCTTATTT [XGTACX_site7285]", "gcPBM binding intensity (ln)": "8.545 ± 0.049"}
{"sequence": "ATATTAAAATACAGTGCATGTTAAAAATATATTATA [TGCATGCA_site977]", "gcPBM binding intensity (ln)": "9.38 ± 0.17"}
{"sequence": "ATGTATTTATATACTTGTACGTAAGATGTATTATAT [XGTACX_site908]", "gcPBM binding intensity (ln)": "8.59 ± 0.38"}
{"sequence": "TAAAAAAAAAACATCTGTACCAATTTTTATGTATAA [XGTACX_site5196]", "gcPBM binding intensity (ln)": "8.07 ± 0.38"}
{"sequence": "AATAAAAGTTCACCTGTACACACATATATATATGTA [CACACA_site8500]", "gcPBM binding intensity (ln)": "8.76 ± 0.34"}
{"sequence": "TTAATTCGTACATACACACGCACATATATATATATA [CACACA_site1469]", "gcPBM binding intensity (ln)": "10.1 ± 0.38"}
{"sequence": "ATTGGAAAATATGTTATATATATATATATATATATG [CACACA_negctrl_site116]", "gcPBM binding intensity (ln)": "8.715 ± 0.049"}
{"sequence": "AATAATAATAGAAACACACACACATCTTTAATAATA [CACACA_site4805]", "gcPBM binding intensity (ln)": "8.63 ± 0.69"}
{"sequence": "ATATTTTTTTTCTACACACATACAAATATATATTAT [CACACA_site2359]", "gcPBM binding intensity (ln)": "8.97 ± 0.46"}
{"sequence": "CTTTTTCGCATGAAAAGTACATGAAATATATTACAT [XGTACX_site8971]", "gcPBM binding intensity (ln)": "8.42 ± 0.35"}
{"sequence": "ACATGCAACCATTCGGGTACAGAAATAAATATATAC [XGTACX_site4174]", "gcPBM binding intensity (ln)": "8.98 ± 0.2"}
{"sequence": "AATAACTTTTTAAACACACACACATATAAATAAATA [CACACA_site6196]", "gcPBM binding intensity (ln)": "8.72 ± 0.57"}
{"sequence": "GGTTATAACGCACATGCACACGTAAATAAATATTAT [CACACA_site9277]", "gcPBM binding intensity (ln)": "9.17 ± 0.37"}
{"sequence": "TAAATTTTAATAAATACACACAAATTTTAATTCTAT [CACACA_site6039]", "gcPBM binding intensity (ln)": "8.22 ± 0.39"}
{"sequence": "TATTGTATATAATAAACACACAATATTAAAAATATA [CACACA_site1057]", "gcPBM binding intensity (ln)": "8.22 ± 0.45"}
{"sequence": "TATTTAAAAAACACATGTACGAGTATTATATATAAA [XGTACX_site6654]", "gcPBM binding intensity (ln)": "8.72 ± 0.34"}
{"sequence": "TAATATACTTAATACACACACGAATATTTATAAATA [CACACA_site6675]", "gcPBM binding intensity (ln)": "8.62 ± 0.41"}
{"sequence": "CCCCTCGAAATAATTTGTACGAATATATTGTCTGTA [XGTACX_site8308]", "gcPBM binding intensity (ln)": "9.71 ± 0.32"}
{"sequence": "AAACTCAACTTATATACACACAATCTTTTTTTTTTA [CACACA_site29]", "gcPBM binding intensity (ln)": "8.36 ± 0.4"}
{"sequence": "GATTCATCTAAACACCGTACATATTATATATATATA [XGTACX_site6030]", "gcPBM binding intensity (ln)": "9.43 ± 0.67"}
{"sequence": "AGTATATTAAAAAATACACACGTATTATATCTACAT [CACACA_site8844]", "gcPBM binding intensity (ln)": "8.28 ± 0.35"}
{"sequence": "GTTCATAAATTAAACACACACACACCGCTGGATACC [CACACA_site5779]", "gcPBM binding intensity (ln)": "8.86 ± 0.5"}
{"sequence": "GATTATATATTAAAAAGTACTTTATAAATACTTCTA [XGTACX_site8992]", "gcPBM binding intensity (ln)": "8.34 ± 0.37"}
